Reference: patent US20230203155A1 (ALMAC DISCOVERY, published 2023)

How the values were obtained:
[1] = molecular target: T1, human ROR1-hFc fusion protein (extracellular domain) (human); experiment: SPR, ROR1-hFc on chip
T1 construct: Whole entry 'human ROR1-Fc (CHO)'; also called hROR1; huROR1-Fc

[2] = molecular target: T2, human ROR2-hFc fusion protein (extracellular domain) (human); experiment: SPR, ROR2-hFc on chip
T2 construct: Whole entry 'human ROR2-Fc (CHO)'; also called hROR2

[3] = molecular target: T3, human ROR1 on the surface of ROR1hi human cancer cell lines (human, UniProt Q01973 30-937); experiment: flow cytometry, A549 (ROR1hi) against A427 (ROR1low) cells, PE-anti-human antibody
T3 construct: whole, on cells; Cell line is named under assay; also called cell surface ROR1

[4] = molecular target: T1, human ROR1-hFc fusion protein …; experiment: SPR, human ROR1 ECD-Fc on chip;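 further: SPR binding kinetics of VNAR and VNAR-Fc molecules run at a range of concentrations over immobilised target, rate and affinity constants fitted with QDat software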
[5] = molecular target: T1, human ROR1-hFc fusion protein …; experiment: SPR, ROR1-hFc on chip; remark: listed apart in the source
[6] = molecular target: T2, human ROR2-hFc fusion protein …; experiment: SPR, ROR2-hFc on chip; remark: listed apart in the source

Binder | binding result [1] | binding result [2] | binding result [3] | Kd [4] [nM] | koff [4] [s⁻¹] | kon [4] [M⁻¹ s⁻¹] | also measured
B1G1-hFc (Fc fusion, also called B1G1 hFc (S252C)) TRVDQSPSSLSASVGDRVTITCVLTGANYGLASTYWYRKNPGSSNKEQISISGRYSESVNKGTKSFTLTISSLQPEDSATYYCRAYPWGAGAPWLVQWYDGAGTKVEIKGGGGSGGGGSGGGGS[human IgG1 Fc with changes cut from this listing] |  |  |  | 11.8 | 0.00266 | 240000 | 
B1G2-hFc (Fc fusion, also called B1G2 hFc (S252C)) TRVDQSPSSLSASVGDRVTITCVLTGANYGLASTYWYRKNPGSSNQERISISGRYSESVNKRTMSFTLTISSLQPEDSATYYCRAYPWGAGAPWLVQWYDGAGTKVEIKGGGGSGGGGSGGGGS[human IgG1 Fc with changes cut from this listing] |  |  |  | 2.55 | 0.00141 | 626000 | 
hFc-P3A1 (Fc fusion, VNAR at C terminus of Fc; also called hFc (S252C) P3A1) [human IgG1 Fc with changes cut from this listing]GGGGSGGGGSGGGGSGGGGSGGGGSTRVDQTPRTATKETGESLTINCVLTDTSYGLYSTSWFRKNPGTTDWERMSIGGRYVESVNKGAKSFSLRIKDLTVADSATYYCKAREARHPWLRQWYDGAGTVLTVN |  |  |  |  |  |  | Kd [5]: 0.35 nM; koff [5]: 0.000776 s⁻¹; kon [5]: 2.38e+06 M⁻¹ s⁻¹; binding result [6]: no binding

Continued, in another order:

binding result [1] | binding result [2] | binding result [3] | Kd [4] [nM] | koff [4] [s⁻¹] | kon [4] [M⁻¹ s⁻¹] | Binder | also measured
no binding | no binding | no binding (tested: 122 nM) |  |  |  | 2V hFc (Fc fusion, control; also called 2V hFc (S252C)) TRVDQTPRTATKETGESLTINCVLTDTSYGLYSTSWFRKNPGTTDWERMSIGGRYVESVNKGAKSFSLRIKDLTVADSATYYCKAQSLAISTRSYWYDGAGTVLTVNGGGGSGGGGSGGGGS[human IgG1 Fc with changes cut from this listing] | 
no binding | no binding | no binding (tested: 122 nM) |  |  |  | 2V hFc-MMAE (Fc fusion, MC vc PAB MMAE on engineered Cys (S252C, Kabat), control conjugate; also called 2V-hFc-vcMMAE) TRVDQTPRTATKETGESLTINCVLTDTSYGLYSTSWFRKNPGTTDWERMSIGGRYVESVNKGAKSFSLRIKDLTVADSATYYCKAQSLAISTRSYWYDGAGTVLTVNGGGGSGGGGSGGGGS[human IgG1 Fc with changes cut from this listing] | 

Read-outs that look alike come from different tables or passages of the source.
